86 sequences from the supplement of paper PMC3334620 can be followed below.

Whole data set: some 33,000 sequences, median “E-score (-0.5 to 0.5)” near -0.011, cut for the highest 2% near 0.28. The list shows a part of the results.

This assay deals with T1, Gcr1 (UniProt P07261).
T1 sequence: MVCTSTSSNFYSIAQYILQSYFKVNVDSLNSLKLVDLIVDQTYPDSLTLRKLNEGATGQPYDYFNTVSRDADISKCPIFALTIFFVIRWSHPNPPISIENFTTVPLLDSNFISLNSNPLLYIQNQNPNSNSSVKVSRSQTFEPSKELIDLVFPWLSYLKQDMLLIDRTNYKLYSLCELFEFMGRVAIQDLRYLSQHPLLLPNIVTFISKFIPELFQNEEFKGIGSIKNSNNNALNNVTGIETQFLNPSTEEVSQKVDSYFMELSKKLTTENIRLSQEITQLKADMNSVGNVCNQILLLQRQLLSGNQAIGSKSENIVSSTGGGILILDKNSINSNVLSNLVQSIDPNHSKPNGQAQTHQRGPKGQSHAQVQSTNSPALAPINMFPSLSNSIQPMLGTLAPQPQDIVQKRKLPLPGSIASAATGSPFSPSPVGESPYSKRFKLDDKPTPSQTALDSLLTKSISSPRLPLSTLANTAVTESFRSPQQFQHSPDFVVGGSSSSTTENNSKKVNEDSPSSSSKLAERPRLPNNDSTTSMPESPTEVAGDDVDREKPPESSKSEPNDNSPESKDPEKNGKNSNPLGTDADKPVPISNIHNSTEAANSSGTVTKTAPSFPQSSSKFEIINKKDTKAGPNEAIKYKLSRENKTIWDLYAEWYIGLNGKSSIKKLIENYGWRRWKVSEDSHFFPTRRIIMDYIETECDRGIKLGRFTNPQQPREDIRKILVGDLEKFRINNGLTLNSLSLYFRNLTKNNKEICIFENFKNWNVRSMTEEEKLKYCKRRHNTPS
The assay can be described thus: PBM E-score (8-mer binding enrichment) (E-score (-0.5 to 0.5)); higher = stronger / more preferred TF binding; most listed sequences are background and not binding sites. The conditions noted are these: protein concentration: 100 nM; construct: GST-full length. Summed up:
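Yeast transcription factors carrying a GST tag, as full-length proteins or DNA-binding domains, were produced by PURExpress in vitro transcription/translation. About 100-200 nM protein was applied to universal all-10-mer Agilent arrays, double-stranded by primer extension on fresh or once-stripped slides. Bound protein was detected with fluorescent anti-GST, and scans were normalised with masliner. The Universal PBM Analysis Suite gave each ungapped eight-base word, pooled with its reverse complement, an E-score, a modified Wilcoxon-Mann-Whitney statistic.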
For the sequence CCTATCAA, the “PBM E-score” value is -0.0163.
Consider ACCCCGAA, for which the “PBM E-score” value is 0.218.
With AAGTCCTA, the “PBM E-score” value was -0.0727.
As to AAACAGGG, the “PBM E-score” value was determined as 0.06.
To AAAGACGC belongs 0.159.
For ACGCTTGC the value was -0.203.
On to ACGATACA, for which the “PBM E-score” value was -0.14.
AATCTGTC: the “PBM E-score” value was -0.016.
For GTGAACAA the value was 0.0843; for ACTACCCC, -0.0635; for AGTGCTAG, 0.0817.
To GAACGGCC belongs -0.206; to ATCGGAGA, -0.0782; to ATGCGTTC, 0.018.
Consider AACTAGCT, for which the “PBM E-score” value was -0.113.
Take CCTGCCAA: the “PBM E-score” value was -0.111.
As for AGAGGACG, the “PBM E-score” value worked out at 0.18.
CTACTTGC: the “PBM E-score” value is -0.057.
For CTATACAC the value was -0.252.
With TATCTCCA, the “PBM E-score” value amounted to 0.166.
For AAAACCCC the value was -0.0406; for TCTACACA, -0.149; for CCCGCAGA, 0.182.
As for AATCCTAG, the “PBM E-score” value amounted to 0.0455.
To GCCTTGAA belongs -0.184.
In the case of ATGCGAGG, the “PBM E-score” value came out at 0.0129.
To GCGGTTTA belongs -0.263; to ATGCGATA, 0.00653.
Regarding CAAATGAA, the “PBM E-score” value was -0.156.
As to TCCCCCCA, the “PBM E-score” value was -0.241.
For the sequence AGCCACGC, the “PBM E-score” value was -0.127.
Take CAAGGGCC: the “PBM E-score” value was -0.103.
For the sequence AAGTTCCA, the “PBM E-score” value is 0.0995.
With ATAGTTTG, the “PBM E-score” value was determined as 0.034.
In the case of CCGCGACC, the “PBM E-score” value was -0.0786.
For TAAAGTTA, the “PBM E-score” value is 0.127.
To GAGGCTCC belongs 0.278; to AAATTGCC, 0.167.
With AAACGTTC, the “PBM E-score” value was found to be 0.0275.
For AGCTGAGA the value was -0.0984.
For the sequence AGCTAGAA, the “PBM E-score” value turned out to be 0.0721.
For GGACGACC the value was -0.145; for CAGCAACG, 0.0545.
For CCCGGTCG the value was -0.211.
As to ATGGCTCC, the “PBM E-score” value came to 0.222.
For AGCAGCGG the value was 0.0723.
In the case of ACCGCTCT, the “PBM E-score” value worked out at 0.0352.
Regarding CTGATCTA, the “PBM E-score” value is 0.018.
For CTACCCCA the value was 0.0207.
On to CCAGCATC, for which the “PBM E-score” value is 0.217.
In the case of AATCGTAA, the “PBM E-score” value worked out at 0.0789.
For CATGAATC the value was -0.113; for GTGCTGTA, -0.219.
Take GAGACCGC: the “PBM E-score” value was -0.00411.
Turning to CGCTTGTC, the “PBM E-score” value was -0.0873.
TAAGGGCA: the “PBM E-score” value was 0.024.
To CAATCATA belongs -0.0206; to ATCGGTAG, -0.0272; to ACCAGGGC, -0.158.
For ATTCAAGC, the “PBM E-score” value is -0.0491.
For ACTACGGA the value was -0.0242.
As for AACACTGC, the “PBM E-score” value was 0.0352.
For TCTGGTCA the value was -0.0814; for AGGAGTGG, 0.134.
For CACTAGGC the value was -0.0409; for CACCAAAA, 0.126; for CCAATGGC, 0.0654.
For AGTCAGCC the value was -0.2; for TACCCGGA, -0.0492.
Consider CCGAGTCA, for which the “PBM E-score” value is -0.25.
Regarding GATAAAAC, the “PBM E-score” value is 0.198.
For ACTCCGAA the value was 0.205.
For AAAAGGTA the value was 0.165; for ACTATTAG, 0.188; for CATGTAAA, 0.0253.
Regarding GGAAGACA, the “PBM E-score” value came out at 0.0661.
As for AATACCAT, the “PBM E-score” value is -0.0711.
Take TAGTCATA: the “PBM E-score” value was -0.0432.
On to ATAAAGAA, for which the “PBM E-score” value was found to be 0.11.
With AAGCGAGC, the “PBM E-score” value amounted to 0.0318.
As to TGGACCCA, the “PBM E-score” value amounted to 0.104.
With AACCAATC, the “PBM E-score” value amounted to 0.111.
For AAATGAGT, the “PBM E-score” value came to 0.04.
For ACGAAAGT the value was -0.0283.
To GCAAGCGC belongs -0.0657.
Consider GGACACCC, for which the “PBM E-score” value was found to be 0.0834.
